Consider eight compounds from PMC5540273 (PLoS ONE, 2017).

Some test systems named below: TNK1; TNK2; TNNI3K; TRKB; TRPM6; TSSK1B; TSSK3; TTK; TXK; TYRO3; ULK1; ULK2; ULK3; VRK2.
Holding throughout (settings): concentration: 1 μM,replicates: in singlicate; n = 1
Another assay deals with T1, TRKA.
T1 construct: gene NTRK1

In another assay the test system is T2, TRKC.
T2 construct: gene NTRK3

In assay [1] the test system is TYK2(JH1domain-catalytic).
The subject of assay [2] is TYK2(JH2domain-pseudokinase).
The subject of a further assay is T3, VEGFR2.
T3 construct: gene KDR

The next assay deals with T4, VPS34.
T4 construct: gene PIK3C3

Each structure is given as a SMILES string. For some of these results: This list holds what a sample rich in strong results left over. Only a part is listed here, and it is no random draw.
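Also: KINOMEscan kinase panel screen.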

Regarding `O=C(O)c1ccc(-c2nc(-c3ccc(F)cc3)c(-c3ccncc3)[nH]2)cc1` [SB-202620], the “%Inh” value is on record as 15% with TNK1; 0% in the assay with TNK2; 3% with TNNI3K; 94% with TRKA; 0% in the assay on TRKB; 0% in the assay on TRKC. Besides, the “%Inh” value was found to be 27% in the assay with TRPM6; 0% in the assay with TSSK1B; 8% with TSSK3; 32% in the assay on TTK; 21% with TXK; 0% in assay [1]. Besides, the “%Inh” value in assay [2] came out at 4%; in the assay with TYRO3, 0%; in the assay with ULK1, 9%; in the assay with ULK2, 22%; in the assay on ULK3, 16%; with VEGFR2, 0%. The figures for the “%Inh” value in the assay with VPS34 and with VRK2 were 17% and 0%, respectively.
For `O=C1NC(=O)C(c2ccc(Cl)cc2)=C1Nc1ccccc1` [SB-317661], the “%Inh” value in the assay on TNK1 is given as 0%; in the assay on TNK2, 0%; in the assay with TNNI3K it was 0%; with TRKA, 0%; in the assay on TRKB, 23%; in the assay with TRKC it was 10%. Further, the “%Inh” value is 26% with TRPM6; 0% in the assay on TSSK1B; 0% in the assay on TSSK3; 0% in the assay on TTK; 0% in the assay with TXK; 14% in assay [1]. Further, the “%Inh” value in [2] stood at 41%; in the assay with TYRO3, 0%; in the assay on ULK1 it was 33%; with ULK2, 32%; in the assay with ULK3, 31%; with VEGFR2 it was 4%. The “%Inh” value in the assay on VPS34 is given as 45%; in the assay with VRK2, 12%.
`COc1cccc(C2=C(Nc3ccc(SC)cc3)C(=O)NC2=O)c1` [SB-331032]: the “%Inh” value is listed as 4% in the assay with TNK1; 0% in the assay with TNK2; 0% in the assay on TNNI3K; 18% with TRKA; 11% with TRKB; 9% in the assay with TRKC. Further, the “%Inh” value turned out to be 0% in the assay on TRPM6; 0% with TSSK1B; 15% in the assay on TSSK3; 0% in the assay with TTK; 0% with TXK; 40% in assay [1]. Moreover, the “%Inh” value in [2] is 26%; with TYRO3, 16%; in the assay on ULK1 it was 34%; in the assay with ULK2, 24%; in the assay with ULK3, 34%; in the assay on VEGFR2, 4%. Besides, the “%Inh” value came out at 18% in the assay with VPS34 and 34% in the assay with VRK2.
Turning to `Cc1cc(C)cc(Oc2nccc(-c3c(-c4ccc(F)cc4)ncn3C3CCNCC3)n2)c1.O=C(O)C(F)(F)F.O=C(O)C(F)(F)F.O=C(O)C(F)(F)F` [SB-284851], the “%Inh” value in the assay with TNK1 is on record as 10%; in the assay on TNK2, 0%; with TNNI3K it was 0%; with TRKA, 0%; in the assay on TRKB, 0%; in the assay on TRKC it was 0%. Also, the “%Inh” value came to 0% in the assay on TRPM6; 0% with TSSK1B; 0% with TSSK3; 12% in the assay with TTK; 21% in the assay on TXK; 0% in [1]. The “%Inh” value in assay [2] is on record as 6%; in the assay on TYRO3, 0%; in the assay with ULK1 it was 0%; in the assay with ULK2, 0%; in the assay on ULK3 it was 19%; in the assay with VEGFR2 it was 0%. The “%Inh” value with VPS34 worked out at 9%; with VRK2, 0%.
`O=C1NC(=O)C(c2ccccc2)=C1Nc1ccc(Cl)c(C(=O)O)c1` [SB-390532]: the “%Inh” value was found to be 2% with TNK1; 15% with TNK2; 17% with TNNI3K; 0% in the assay with TRKA; 60% in the assay with TRKB; 45% in the assay with TRKC. Also, the “%Inh” value in the assay on TRPM6 is listed as 42%; with TSSK1B it was 29%; with TSSK3 it was 0%; with TTK, 0%; with TXK, 19%; in assay [1], 37%. Moreover, the “%Inh” value in assay [2] was found to be 53%; with TYRO3, 0%; in the assay on ULK1, 1%; in the assay on ULK2, 0%; in the assay on ULK3 it was 13%; in the assay on VEGFR2 it was 1%. Also, the “%Inh” value in the assay with VPS34 is 0%; in the assay with VRK2, 49%.
Regarding `O=C1NC(=O)C(c2ccc(Cl)cc2)=C1Nc1cccc(O)c1` [SB-333613], the “%Inh” value in the assay with TNK1 was determined as 22%; with TNK2 it was 0%; with TNNI3K, 9%; in the assay on TRKA, 19%; with TRKB, 10%; in the assay on TRKC, 35%. Also, the “%Inh” value turned out to be 9% in the assay with TRPM6; 2% with TSSK1B; 43% in the assay with TSSK3; 0% in the assay on TTK; 0% in the assay with TXK; 27% in [1]. Besides, the “%Inh” value in [2] turned out to be 42%; in the assay on TYRO3 it was 0%; in the assay on ULK1 it was 39%; with ULK2 it was 17%; in the assay on ULK3, 42%; in the assay with VEGFR2 it was 12%. Besides, the results for the “%Inh” value in the assay with VPS34 and with VRK2 were 0% and 18%, respectively.
In the case of `O=C1NC(=O)C(c2ccccc2Cl)=C1Nc1cccc(C(=O)O)c1` [SB-390526], the “%Inh” value worked out at 0% in the assay with TNK1; 2% in the assay with TNK2; 11% with TNNI3K; 6% in the assay on TRKA; 7% with TRKB; 17% in the assay on TRKC. Further, the “%Inh” value was found to be 0% in the assay with TRPM6; 4% in the assay on TSSK1B; 8% in the assay on TSSK3; 0% in the assay with TTK; 4% in the assay with TXK; 7% in assay [1]. Besides, the “%Inh” value in assay [2] is listed as 13%; in the assay with TYRO3, 0%; with ULK1 it was 27%; in the assay with ULK2 it was 0%; in the assay on ULK3, 100%; in the assay with VEGFR2, 8%. Moreover, the “%Inh” value was determined as 29% with VPS34 and 0% in the assay with VRK2.
For the compound `CS(=O)(=O)c1ccccc1-c1nc(-c2ccc(F)cc2)c(-c2ccncc2)[nH]1` [SB-213663], the “%Inh” value is on record as 0% in the assay on TNK1; 0% with TNK2; 0% in the assay with TNNI3K; 31% in the assay with TRKA; 27% with TRKB; 6% with TRKC. Moreover, the “%Inh” value in the assay on TRPM6 is 0%; in the assay with TSSK1B, 0%; in the assay with TSSK3, 43%; in the assay with TTK, 0%; with TXK, 29%; in [1] it was 19%. Besides, the “%Inh” value amounted to 0% in assay [2]; 0% in the assay on TYRO3; 0% with ULK1; 8% in the assay with ULK2; 10% with ULK3; 0% with VEGFR2. Besides, the “%Inh” value in the assay with VPS34 amounted to 0%; in the assay with VRK2, 92.2%.
